Measurements reported in PubChem BioAssay AID1508624 (National Center for Advancing Translational Sciences (NCATS), 2021).
Screen size: about 48,000 compounds; about 120 (0.25%) were called active. About 4% were inconclusive and are not listed. Calls follow the shape of the dose curve; as a rule, active = well fitted activation curve with a large enough effect; inconclusive = small, poorly fitted or top-dose-only effect, or another doubt; inactive = no such curve, though single readings can be large or run the other way. The list shows a part of the results.

test: Primary qHTS for Identification of Small Molecule Activators of Huntingtin-Antisense Promoter Activity; settings: HEK293 HTT-AS promoter firefly luciferase reporter, 24 h; series mostly up to 57.5 µM; activity change, positive = activation: at the top concentration; also: nearly all actives have a fitted effect of over 55% in size
Summary of the method: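 Firefly luciferase readout (Dual-Glo, 10 min RT) after 24 h, 37 °C compound exposure (final up to 57.5 uM) of HEK293 reporter cells cultured 24 h beforehand; PTC124 at 50 uM final as control inhibitor; activity scaled vehicle 0%, zero RLU -100%.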

Activity change, positive = activation, inactive:
Cc1c(-c2ccc(Br)cc2)c(=O)oc2ccc(OC(=O)N3CCOCC3)cc12 -16%
CCN(CC)C(=O)CSc1nc(-c2ccccc2F)nc2c1Cc1c(CO)cnc(C)c1O2 -24.2%
CC(C)(C)OC(=O)N1CCC(c2c(C(=O)N3CCCCC3)cnn2-c2ccc(Cl)cc2)CC1 -11.7%
COC(=O)c1ccccc1NC(=O)CSc1nc2ccsc2c(=O)n1CCC(C)C -1.63%
CCOc1cc(C(=O)NCCc2csc3nc(-c4ccc(C)cc4)nn23)cc(OCC)c1OCC -15.7%
COc1ccc(N2CC(NC(=O)COc3ccccc3)CC2=O)cc1OC (centres undefined) -4.05%
CCOC(=O)c1cnc2ccc(OC)cc2c1NCCc1ccccc1 -76.6%
Cn1c(=O)c2c(SCC(=O)NCc3ccco3)nc(-c3ccccc3)nc2n(C)c1=O -1.86%
CN(c1ncnc2onc(-c3cccc(Cl)c3)c12)C1CCCCC1 -27.7%
O=C(O)Cc1ccc(-c2ccccc2)cc1 2.02%
CCc1ccc(-n2nc3cc(C)c(NC(=O)c4cccc5ccccc45)cc3n2)cc1 12.7%
Cc1ccc(-n2nc(CO)c(C(=O)NCc3ccccn3)n2)cc1C 10.9%
CC1CCn2c(nc3cc(C(=O)NCCc4ccc(Cl)cc4)ccc32)C1 (centres undefined) -1.86%
CCOC(=O)c1noc2ncn(CC(=O)Nc3ccc(C)c(F)c3)c(=O)c12 -8.59%
Cc1cccc(NC(=O)CCS(=O)(=O)c2ccc3c(c2)n(C)c(=O)c(=O)n3C)c1C 1.44%
CCOC(=O)C1CCCN(C(=O)c2nn(-c3ccc(OC)cc3)c(=O)c3c2c2ccccc2n3C)C1 (centres undefined) -9.8%
CCc1cccc(NC(=O)C2CCN(C(=O)c3cnn(-c4ccccc4)c3-n3cccc3)CC2)c1 -45.2%
Cc1ccc(-n2c(=O)c3c(C)c(C(=O)N(C)C)sc3n(CC(=O)C(C)(C)C)c2=O)cc1C 4.93%
Cc1cc2c(cc1CC(=O)c1sccc1S(=O)(=O)Nc1onc(C)c1Cl)OCO2 -4.68%
CCc1ccc(-n2nc(C)c3c(C)cc(=O)n(CC(=O)N4CCCc5ccccc54)c32)cc1 11.5%
O=c1cc(-c2ccccc2)n2c(SCc3ccccc3)nnc2[nH]1 11.2%
Cc1c(C(=O)N(Cc2ccccc2F)C2CCS(=O)(=O)C2)oc2ccc(F)cc12 (centres undefined) -8.44%
CCOc1ccc(/C=C(\C#N)c2nc3ccccc3c(=O)[nH]2)cc1OC -7.49%
CCOc1ccccc1NC(=O)C1CCCN(S(=O)(=O)c2c(C)[nH]c(=O)[nH]c2=O)C1 (centres undefined) -1.03%
CCOc1ccc(-c2nonc2NC(=O)c2oc3ccc(Br)cc3c2C)cc1 -40.9%
O=C(CSc1nnc(-c2ccccc2)c(-c2ccccc2)n1)NC1CCCCC1 -20.4%
Cc1ccc(N2CC(NC(=O)Cc3cccs3)CC2=O)cc1C (centres undefined) -5.13%
CCOC(=O)N1CCc2c(sc(NCc3cccc(F)c3)c2C(=O)Nc2ccccc2OCC)C1 -14.8%
O=C(O)c1cn(-c2ccc(F)cc2)c2cc(N3CCNCC3)c(F)cc2c1=O
COC(=O)c1nnn(CC(=O)NC(=O)Nc2cccc(C)c2C)c1C(=O)OC 17%
CCc1nc2ccc(C(=O)N3CCN(c4ccccc4)CC3)cc2nc1CC -13.3%
CC(C)CN(CCCNC(=O)Cn1ncc2c3ccccc3n(C)c2c1=O)CC(C)C -5.37%
Cc1ccc(CNC(=O)c2cc3c(s2)-c2ccccc2SC3)cc1 -7.37%
CCOC(=O)c1cc(-c2ccccc2)n(CC(=O)NC(C)c2ccccc2)c1C (centres undefined) -23%
CCOC(=O)c1ccc(NC(=O)Nc2c[nH]c(=O)[nH]c2=O)cc1 -14.9%
COc1ccc(Cl)cc1NC(=O)CCS(=O)(=O)c1nc(-c2cccs2)cc(C(F)(F)F)n1 -56.6%
CCc1ccc(OC(C)C(=O)N2CCC(c3nc4ccccc4s3)CC2)cc1 (centres undefined) -6.71% [at 11.5 µM, percent change from vehicle, -100% = no light]
CC(C)COc1ccc(C(=O)Nc2cccc(-c3nc4ccccc4[nH]3)c2)cc1 -35%
Cc1cc(C)cc(NC(=O)CCS(=O)(=O)c2cc3c4c(c2)CCN4C(=O)CC3)c1 -8.04%
COc1ccccc1-c1cc2nc(C)c(CCC(=O)Nc3ccc(Br)c(C)c3)c(C)n2n1 -50.5%
O=C(NC1(C(F)(F)F)C(=O)Nc2c1c(=O)[nH]c(=O)n2CCc1ccccc1)c1ccc(Cl)cc1Cl (centres undefined) -4.54%
COc1ccccc1CNC(=O)CCCc1nnc2n(CC(C)C)c(=O)c3sccc3n12 -15.2%
CC(C)N(C(=O)CSc1nc2ccc(Cl)cc2[nH]1)c1ccccc1 -21.4%
COc1ccccc1CNC(=O)CCC1N=C2c3ccccc3N=C(SCc3cccc(Cl)c3)N2C1=O (centres undefined) -17.2%
O=C(c1ccc(F)cc1)N1c2nc(-c3ccco3)nn2C2(CCCCC2)[C@@H]2CCCC[C@@H]21 -32.5%
CCOc1ccc(OCC)c(NS(=O)(=O)c2cc(Br)cc3c2N(C(C)=O)C(C)C3)c1 (centres undefined) -40.1%
COc1ccc(-c2cc3nc(-c4ccc(C)cc4)cc(C(F)(F)F)n3n2)cc1 -4.42%
CCC(=O)Nc1nnc(SCc2cc(=O)c3cc(C)ccc3[nH]2)s1 -32.7%
CCOc1cc(-c2nnc(SCC(=O)Nc3ccc(F)c(F)c3)nc2-c2ccc(OC)c(OCC)c2)ccc1OC -8.16%
Cc1c(C(=O)OC2CCCC2)[nH]c2c1C(=O)CC(c1ccc(Cl)cc1)C2 (centres undefined) -4.11%
CC(=O)N1CCc2c(sc3c2c(=O)n(-c2ccccc2)c(=O)n3CC(=O)Nc2cccc(C)c2)C1 -27.5%
CCOc1ccc(CNS(=O)(=O)c2c(C(=O)N3CCC(C)CC3)c(C)n(C)c2C)cc1OC -8.46%
CCCS(=O)(=O)N1CC(=O)N(c2cc(C)ccc2C)C(C)(C(=O)NC2CCCCCC2)C1 (centres undefined) -4.36%
Cc1cccc(N2CCn3c2nc2c3c(=O)n(CCc3ccccc3)c(=O)n2C)c1 -2.53%
COc1cccc(-c2cn3c(n2)sc2cc(C(=O)NCCc4ccc(OC)c(OC)c4)ccc23)c1 -10.6%
CC(C)N1C(=O)C(O)(c2c[nH]c3ccccc23)c2ccccc21 (centres undefined) -19%
N#CC1=C(N)N(c2cccc(Cl)c2)C2=C(C(=O)CCC2)C1c1cc(CN2CCOCC2)cs1 (centres undefined) -8.91%
CSc1cccc(NC(=O)CN2CCN(Cc3ccccc3C)S2(=O)=O)c1 -15.8%
Cc1cccc(N2C(=O)CS(=O)(=O)C23C(=O)N(Cc2c(F)cccc2Cl)c2ccccc23)c1 (centres undefined) -22.4%
